# From PubChem BioAssay AID1461 (National Center for Advancing Translational Sciences (NCATS), 2008)
# Screen size: about 220,000 compounds; about 2,300 (1%) were called active. Inconclusive results, whose numbers are uncertain, are shown with a selection of clear calls. Calls come from the whole dose curve; as a rule, active = well fitted inhibition curve with a large enough effect; inconclusive = small, poorly fitted or top-dose-only effect, or effect the other way; inactive = no such curve, though single readings can be large or run the other way. Where the call is inconclusive, the potency comes from a doubtful curve fit.
# Biological target: Neuropeptide S receptor (Homo sapiens) (UniProt Q6W5P4)
# Test: qHTS Assay for Antagonists of the Neuropeptide S Receptor: cAMP Signal Transduction; note: nearly all actives have a fitted effect of over 50% in size
# Conditions: CHO-NPSR cells, cAMP TR-FRET, antagonist mode; activity change, negative = inhibition: at 38.3 µM (top of the series) unless noted
# % is set by controls: 0 for no effect and ±100 for the full control effect; potency is the fitted concentration of half-maximal effect; tags give direction and shape of the fitted curve.
# UniProt Q6W5P4, sequence (Q6W5P4 whole entry, looked up): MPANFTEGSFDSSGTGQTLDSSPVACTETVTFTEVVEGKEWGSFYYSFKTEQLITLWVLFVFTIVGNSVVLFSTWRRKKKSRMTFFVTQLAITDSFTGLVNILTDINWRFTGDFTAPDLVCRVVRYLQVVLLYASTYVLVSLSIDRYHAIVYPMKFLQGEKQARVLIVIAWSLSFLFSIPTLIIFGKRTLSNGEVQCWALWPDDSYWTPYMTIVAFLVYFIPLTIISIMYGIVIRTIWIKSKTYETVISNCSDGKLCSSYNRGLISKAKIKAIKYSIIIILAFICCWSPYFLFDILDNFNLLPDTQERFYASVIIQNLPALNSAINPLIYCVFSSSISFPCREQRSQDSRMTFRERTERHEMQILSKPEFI
SMILES,Potency,"activity change, negative = inhibition"
COC(=O)C1=C(C)N=c2s/c(=C/c3ccoc3)c(=O)n2C1c1ccccc1 (configuration not stated),"inconclusive: 5.01 µM [inhibitor, partial curve, poor fit]",–
CCCCCCCCOC(=O)C1=C(C)Nc2nnnn2C1c1cccs1 (configuration not stated),"inconclusive: 12.6 µM [inhibitor, single point]",–
CC(C)c1cc(NC(=O)c2ccccc2)cc(C(C)C)c1O,–,inactive: -41.8%
Cc1cc(N2CCCCC2)n2nc(C)c(-c3ccccc3)c2n1,–,inactive: -27.1% [at 46.1 µM]
Brc1ccc(-c2nnc3n2C2(CCCC2)Cc2ccccc2-3)o1,"inconclusive: 12.6 µM [inhibitor, single point]",–
O=C1ON=C(c2ccccc2)/C1=C/c1ccc(-c2ccccc2[N+](=O)[O-])o1,active: 7.94 µM,–
CC(C)c1ccc(OCc2nc(-c3ccccn3)no2)c(Br)c1,–,inactive: -10% [at 46.1 µM]
CCCc1nc2c(C)cc(-c3nc4ccccc4n3C)cc2n1Cc1ccc(-c2ccccc2C(=O)O)cc1,active: 1.26 µM,–
CCCCN=C1NN=C(c2ccc3c(c2)OCCO3)CS1,–,inactive: -14.4%
CCn1c2ccccc2c2cc(NC(=O)CNCC3CCCO3)ccc21 (configuration not stated),–,inactive: -16.2%
O=C1ON=C(c2cccc([N+](=O)[O-])c2)/C1=C/c1ccc(O)cc1,active: 10 µM,–
Cn1c2ccccc2c2cc(/C=C(\NC(=O)c3ccccc3)C(=O)NCC(=O)O)ccc21,"inconclusive: 25.1 µM [activator, single point]",–
O=C(C1=C[C@@H](C2CCCCC2)C[C@@H](OCc2ccc(CO)cc2)O1)N1CCN(Cc2ccccc2)CC1,"inconclusive: 12.6 µM [activator, partial curve]",–
COc1ccc(/C=N\NC(=O)COc2ccc(Cl)cc2Cl)c(C(=O)O)c1OC,–,inactive: 9.4%
CCOC(=O)C1=C(C)NC(=O)C(C#N)C1c1ccco1 (configuration not stated),"inconclusive: 10 µM [inhibitor, single point]",–
COCCCNCCCOc1ccc(C)cc1Br,–,inactive: 21.2%
O=C(CCc1nc2ccccc2s1)N1CCN(S(=O)(=O)c2cccs2)CC1,–,inactive: -21.2% [at 46.1 µM]
Cc1ccn2c(-c3csc(NCc4ccco4)n3)c(C)nc2c1,"inconclusive: 25.1 µM [inhibitor, single point]",–
CCOC(=O)C1CCCN(Cc2ccccc2F)C1 (configuration not stated),"inconclusive: 31.6 µM [inhibitor, single point]",–
CCc1ccc(NC(=S)N(CCN(C)C)C(C)c2ccncc2)cc1 (configuration not stated),–,inactive: -4.58%
COc1ccc(CNC(=O)c2sc(=S)n(-c3ccccc3)c2N)cc1,–,inactive: 1.72%
CCOc1ccc(N/C(=N/c2nc(C)cc(C)n2)NC(=O)CC)cc1,"inconclusive: 12.6 µM [inhibitor, single point]",–
Cc1ccc(NC(=S)Nc2ccccn2)cc1C,"inconclusive: 3.98 µM [activator, full curve]",–
CC(C)C(c1nnnn1Cc1ccc(F)cc1)N1CCN(C(=O)c2ccco2)CC1 (configuration not stated),"inconclusive: 7.94 µM [inhibitor, partial curve]",–

SMILES,Potency,"activity change, negative = inhibition"
CSc1ccc(-c2nc3cnccn3c2Nc2ccc3c(c2)OCO3)cc1,"inconclusive: 10 µM [inhibitor, single point]",–
Fc1ccc(CSc2ncnc3c2oc2ccccc23)cc1,"inconclusive: 12.6 µM [inhibitor, single point]",–
Cc1nn(Cc2ccc(Cl)c(Cl)c2)c(C)c1NC(=O)c1cc(-c2ccco2)on1,"inconclusive: 12.6 µM [inhibitor, single point]",–
CC(C)CC(NC(=O)C1CCCCC1)C(=O)N1CCN(c2ccccn2)CC1 (configuration not stated),"inconclusive: 25.1 µM [inhibitor, single point]",–
CCOC(=O)C1CCCN(c2cc(C)nc3cc(-c4ccc(Cl)cc4)nn23)C1 (configuration not stated),–,inactive: -12.4% [at 46.1 µM]
CCOC(=O)c1nn(-c2ccc(OCC)cc2)c2nc(CC(C)C)c(C#N)c(=O)n12,"inconclusive: 2.51 µM [activator, single point]",–
Nc1ccc(-c2nc3c(Cl)cc(N)cc3[nH]2)cc1,"inconclusive: 2 µM [inhibitor, full curve]",–
CC(C)NC(=O)c1ccc2c(c1)S(=O)(=O)c1ccccc1C2=O,–,inactive: -4.29% [at 46.1 µM]
COc1ccccc1CN1C[C@@H]2C[C@@H](c3[nH]c4c(C)cccc4c3C)N3CCC[C@@]23C1=O,"inconclusive: 12.6 µM [activator, single point]",–
O=c1[nH]c(CN2CCN(S(=O)(=O)c3ccc4c(c3)OCCO4)CC2)nc2sc3c(c12)CCCC3,"inconclusive: 10 µM [inhibitor, partial curve]",–
CC(C)CCNC(=O)c1onc(CSc2ccncc2)c1C(=O)NCCC(C)C,–,inactive: -33%
COc1ccc2cc(CN(C(=O)Nc3ccccc3OC)C3CCCC3)c(=O)[nH]c2c1,"inconclusive: 12.6 µM [inhibitor, single point]",–
N#Cc1c(-n2cccc2C=O)sc2c1CCCC2,–,inactive: -18.6%
Cc1ccc(C(C(=O)NC2CCCC2)N(C(=O)Cc2cccs2)c2ccc(C)c(C)c2)o1 (configuration not stated),"inconclusive: 12.6 µM [inhibitor, single point]",–
N#Cc1c2c(c(N3CCN(c4ccccn4)CC3)n3c1nc1ccccc13)CCC2,–,inactive: -0.421% [at 46.1 µM]
CCOc1ccccc1NC(=O)C(Sc1ccccc1)c1ccccc1 (configuration not stated),"inconclusive: 12.6 µM [inhibitor, single point]",–
Cc1ccc(-c2noc(CN(C(=O)CCCCCN3C(=O)c4ccccc4C3=O)C(C)C)n2)cc1,"inconclusive: 10 µM [inhibitor, partial curve]",–
CCOC(=O)C(Oc1ccc(=O)n(-c2ccccc2)n1)C(C)=O (configuration not stated),"inconclusive: 2.51 µM [inhibitor, full curve]",–
COC(=O)c1ccc(CSc2nnc(-c3c[nH]c4ccccc34)n2-c2ccccc2)cc1,"inconclusive: 7.94 µM [inhibitor, partial curve]",–
CCOC(=O)c1c(C)oc2c1cc(O)c1ccccc12,–,inactive: -1.44% [at 46.1 µM]
N#Cc1cc2c(nc1SCC(=O)Nc1nccs1)CCCCC2,–,inconclusive: 49.5% [activator] [at 46.1 µM]
C=CCc1ccc(OCCOCCOc2cccc3cccnc23)c(OC)c1,–,inactive: -24.8%
C[N+](C)(C)CCC(=O)c1cccc2ccccc12,active: 31.6 µM,–
Oc1ccc(N2CCN(C(c3cccs3)c3nnnn3CCc3ccccc3)CC2)cc1 (configuration not stated),"inconclusive: 31.6 µM [inhibitor, single point]",–

SMILES,Potency,"activity change, negative = inhibition"
COc1ccc(-c2c(C)[nH]n3c(=O)c(Cc4ccccc4)c(C)nc23)cc1OC,–,inactive: -21.7%
O=C(CCl)N1N=C(c2cccs2)CC1c1ccco1 (configuration not stated),"inconclusive: 25.1 µM [activator, single point]",–
CN1CCN(c2cc(-c3ccccc3)nc3cc(-c4ccc(F)cc4)nn23)CC1,"inconclusive: 15.8 µM [inhibitor, single point]",–
CCn1c(=O)c(C(=O)Nc2nc3ccccc3[nH]2)c(O)c2ccccc21,active: 3.16 µM,–
Cc1cc(C)c(S(=O)(=O)n2ccc3ccccc32)c(C)c1,"inconclusive: 0.0794 µM [inhibitor, full curve, poor fit]",–
Cc1ccc(NC(=S)Nc2ccccn2)c(C)c1,"inconclusive: 25.1 µM [activator, single point]",–
O=C(NC(NC(=S)Nc1ccccc1Cl)C(Cl)(Cl)Cl)c1cccc(Cl)c1 (configuration not stated),"inconclusive: 12.6 µM [inhibitor, single point]",–
Cc1ccc(C(Sc2ccccc2)C(Cn2cncn2)C(=O)c2ccccc2)cc1 (configuration not stated),"inconclusive: 25.1 µM [inhibitor, single point]",–
Fc1ccc2[nH]c3c(N4CCN(c5ccccc5)CC4)ncnc3c2c1,"inconclusive: 10 µM [inhibitor, single point]",–
CCc1cc(=O)oc2c(C)c(OCC(=O)N3CCCc4ccccc43)ccc12,"inconclusive: 7.94 µM [inhibitor, partial curve]",–
Cc1cccc(OCC(=O)N2CCN(c3nnc(-c4ccccc4)c4ccccc34)CC2)c1,"inconclusive: 10 µM [activator, partial curve]",–
COc1ccc(-c2oc(/N=C/N3CCOCC3)c(C#N)c2-c2ccc(OC)cc2)cc1,"inconclusive: 6.31 µM [inhibitor, partial curve]",–
CC(C)CC(=O)NC(=S)Nc1ccccc1C(=O)Nc1ccccc1,–,inactive: -12.6% [at 46.1 µM]
O=C(COC(=O)c1cccc(S(=O)(=O)N2CCc3ccccc3C2)c1)NCc1ccco1,–,inactive: -7.1% [at 46.1 µM]
COc1ccc2[nH]c(=O)c(CN(C(=O)c3ccccn3)C3CCCCC3)cc2c1,"inconclusive: 12.6 µM [inhibitor, single point]",–
CCOP(=O)(c1c(F)c(F)c(F)c(F)c1F)C(O)c1ccccc1 (configuration not stated),"inconclusive: 12.6 µM [inhibitor, partial curve, poor fit]",–
Clc1cccc(-c2nc3nc4ccccc4nc3n2Cc2ccco2)c1,"inconclusive: 12.6 µM [inhibitor, partial curve, poor fit]",–
CCN(CC)S(=O)(=O)c1cccc(N=NC2=C(O)CCCC2=O)c1,–,inactive: 13.3%
N#CC(c1ccc(Cl)cc1)c1ccc2c(C(F)(F)F)cc(C(F)(F)F)nc2n1 (configuration not stated),active: 6.31 µM,–
COc1ccc(C(C)=O)cc1COC(=O)c1cc(C)oc1C,–,inactive: -22.4% [at 46.1 µM]
Clc1ccc(CON/C=N/c2ncnc3sccc23)c(Cl)c1,"inconclusive: 25.1 µM [inhibitor, single point]",–
CCC(Oc1ccccc1)C(=O)Nc1cc(C)on1 (configuration not stated),"inconclusive: 20 µM [inhibitor, single point]",–
O=C(Nc1ccccc1O)c1cccc(S(=O)(=O)N2CCOCC2)c1,–,inactive: 3.93%
CCOC(=O)C1=C(N)N(c2ccc(C)cc2)C2=C(C(=O)CCC2)C1c1cccs1 (configuration not stated),"inconclusive: 15.8 µM [inhibitor, single point]",–
